# Results published in PMC4336329 (PLoS ONE, 2015).
# The campaign covered roughly 310,000 compounds. About 2,200 (0.71%) showed an effect of 50% or more. The effect is printed as a negative number. This is one part of the list.
# Molecular target: human ether-à-go-go-related gene (hERG) potassium channel (human, UniProt Q12809)
# Experiment: primary screen, population patch clamp on CHO cells stably expressing hERG
# Sequence of human ether-à-go-go-related gene (hERG) potassium channel (Q12809 whole entry, looked up): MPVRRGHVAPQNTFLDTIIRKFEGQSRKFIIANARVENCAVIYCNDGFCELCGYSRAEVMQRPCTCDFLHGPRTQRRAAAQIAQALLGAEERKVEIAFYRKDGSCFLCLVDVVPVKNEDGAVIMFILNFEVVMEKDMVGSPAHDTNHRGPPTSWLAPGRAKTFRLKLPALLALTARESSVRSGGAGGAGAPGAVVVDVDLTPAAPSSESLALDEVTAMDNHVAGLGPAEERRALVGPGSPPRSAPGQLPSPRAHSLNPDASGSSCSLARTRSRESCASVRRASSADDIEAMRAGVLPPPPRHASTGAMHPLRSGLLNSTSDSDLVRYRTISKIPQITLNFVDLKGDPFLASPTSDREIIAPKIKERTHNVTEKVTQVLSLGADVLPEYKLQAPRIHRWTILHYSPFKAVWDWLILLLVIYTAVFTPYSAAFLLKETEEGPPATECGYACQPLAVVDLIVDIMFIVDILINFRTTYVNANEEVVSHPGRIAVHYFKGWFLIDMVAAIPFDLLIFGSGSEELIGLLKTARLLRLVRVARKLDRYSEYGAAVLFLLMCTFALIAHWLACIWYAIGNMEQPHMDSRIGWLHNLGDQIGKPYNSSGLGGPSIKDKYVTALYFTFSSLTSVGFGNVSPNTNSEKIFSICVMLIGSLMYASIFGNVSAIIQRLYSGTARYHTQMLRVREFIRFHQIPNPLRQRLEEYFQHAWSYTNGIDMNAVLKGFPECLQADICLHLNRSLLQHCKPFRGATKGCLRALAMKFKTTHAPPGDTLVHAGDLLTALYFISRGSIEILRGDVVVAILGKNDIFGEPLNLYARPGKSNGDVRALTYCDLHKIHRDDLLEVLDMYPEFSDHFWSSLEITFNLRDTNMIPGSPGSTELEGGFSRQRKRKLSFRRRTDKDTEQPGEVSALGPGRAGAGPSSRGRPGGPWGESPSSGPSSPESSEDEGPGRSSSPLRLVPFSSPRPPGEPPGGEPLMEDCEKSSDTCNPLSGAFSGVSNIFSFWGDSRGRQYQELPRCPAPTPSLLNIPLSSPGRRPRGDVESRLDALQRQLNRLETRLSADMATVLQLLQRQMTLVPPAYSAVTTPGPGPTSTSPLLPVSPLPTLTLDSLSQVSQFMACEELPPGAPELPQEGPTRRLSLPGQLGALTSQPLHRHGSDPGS
row,Structure (SMILES),"hERG current change (%, negative = inhibition) at 1uM"
1,CCCc1c(C(=O)N/N=C/c2cccs2)nnn1-c1nonc1N,13.5%
2,Cc1cc(C(=O)COC(=O)C2=COCCO2)c(C)n1-c1ccc2c(c1)OCO2,8.48%
3,COc1ccc(C(=O)NC(=S)NNC(=O)CNC(=O)C2CCCCC2)cc1,11.1%
4,Cc1cc(C)cc(NC(=O)CN2CCC(NC(=O)c3cccc(F)c3)CC2)c1,4.29%
5,Nc1ncnc2nc(SCCC(=O)O)[nH]c12,7.82%
6,CCCCn1c(N)c(N(CCOC)C(=O)c2cnccn2)c(=O)[nH]c1=O,15%
7,Nc1c(C(=O)Nc2ccc(S(=O)(=O)N3CCCC3)cc2)sc2nc3ccc(OC(F)(F)F)cc3cc12,12.3%
8,COc1ccccc1NS(=O)(=O)c1ccc(O)c(C(=O)OCC(=O)N2CCc3ccccc32)c1,1.42%
9,COc1ccc(CC(=O)c2ccc(O)cc2O)cc1,6.47%
10,CCOc1ccc(OCc2cccc(C(=O)N3CCCCCC3)c2)cc1,-31.9%
11,O=C(CSc1nc(-c2ccco2)cc(C(F)(F)F)n1)N1CCCc2ccccc21,3.01%
12,Cc1sc(NC(=O)CCC(=O)O)c(C#N)c1C,9.27%
13,CCc1ncc(C)[nH]1,16.3%
14,CCC(O)CC(C(=O)NNc1ccccc1)C(=O)NNc1ccccc1 (stereo not shown),11.5%
15,Cl.O=C(NN1CCN(Cc2ccccc2)CC1)c1ccc(Cl)cc1,-11.2%
16,Cc1onc(-c2c(Cl)cccc2Cl)c1C(=O)N1CCCCC1,4.72%
17,O=S(=O)(Nc1ccc(F)cc1)c1ccc(NS(=O)(=O)c2cccs2)cc1,10.1%
18,COC(=O)c1ccc(CN2CCC(CO)(Cc3cccc(OC)c3)CC2)cc1,-45.3%
19,CC(C)(C)OC(=O)N1CCC(C(=O)N[C@H](C(=O)O)c2ccccc2)(c2ccccc2)CC1,-1.74%
20,CC(=O)c1ccc(N2CCN(S(=O)(=O)c3ccc4c(c3)CC(C)N4C(=O)C3CC3)CC2)cc1 (stereo not shown),17.4%
21,O=C(N/N=C/c1ccc(-c2cccc([N+](=O)[O-])c2)o1)c1ccc([N+](=O)[O-])cc1,-8.58%
22,COc1ccc(OC)c(NC(=O)c2csc(Cl)c2OC)c1,16.7%
23,Cc1ccc(NC(=O)C2CCC(CNC(=O)[C@@H]3Cc4ccccc4CN3)CC2)cc1 (stereo partly shown),17.8%

row,Structure (SMILES),"hERG current change (%, negative = inhibition) at 1uM"
1,C/C(=N\O)c1ccc2[nH]ccc2c1,6.61%
2,COc1ccc(NC(=O)COC(=O)/C=C/c2ccc(OC)c(S(=O)(=O)N3CCOCC3)c2)cc1,-2.62%
3,Cc1cc(C)n(C2CC(=O)N(c3cccc(Cl)c3)C2=O)n1 (stereo not shown),14.6%
4,CC(O)(CS(=O)(=O)c1cccc(C(F)(F)F)c1)C(=O)Nc1ccc(C(F)(F)F)cc1 (stereo not shown),-2.53%
5,C=CCn1ccc(O)c(Cc2ccc(Cl)cc2)c1=O,6.53%
6,O=C(Cc1ccc(Br)cc1)N1CCN(c2ccc(F)cc2)CC1,-4.48%
7,Cc1ccc(/C=N/NC(=S)Nc2cccc(S(=O)(=O)N(C)C)c2)o1,6.74%
8,Cc1nn(-c2ccccc2)c(C)c1/C=N/N1CCN(c2ccccc2)CC1,-4.96%
9,O=C(CNC(=O)c1cccs1)NCCN1CCN(Cc2ccccc2)CC1,-4.3%
10,c1ccc(C[C@H]2CNCCN2CCCCC2CCCCC2)cc1,-1.24%
11,O=C(O)C(O)(c1ccccc1)C(O)c1ccccc1 (stereo not shown),11.8%
12,Cc1noc(C)c1S(=O)(=O)N1CCCC(C(=O)NCC2CCCO2)C1 (stereo not shown),8.15%
13,COc1ccc2c(c1)SCCC2=O,3.47%
14,Cc1ccc(S(=O)(=O)CCSc2cccc(C(=O)Nc3ccccc3C(=O)O)c2)cc1,13.7%
15,CCOC(=O)/C=C/c1ccc2oc3ccccc3c(=O)c2c1,16.5%
16,COC(=O)C1=C(C)NC(=S)NC1c1ccco1 (stereo not shown),15.7%
17,CCOc1ccc(NC(=O)CCNS(=O)(=O)c2ccc3c(c2)CCC(=O)N3)cc1,4.76%
18,N#CC1=C(N)N(c2ccccc2Sc2ccccc2)C(=O)C1,4.35%
19,CN1CCN(C(=O)CSc2ccc(Cl)cc2)CC1,19.4%
20,CCN(C(=O)CN1C=NS(=O)(=O)c2ccccc21)c1ccccc1,11.8%
21,CN(O)/C=C/C(=O)c1ccc(Br)cc1,-4.85%
22,O=C(CCCc1nc(-c2ccccc2)no1)NC1CCCCC1,14.6%
23,O=C(CCNS(=O)(=O)c1ccc(Br)cc1)NC1CCCCC1,12.6%

row,Structure (SMILES),"hERG current change (%, negative = inhibition) at 1uM"
1,Cc1ccc(Cn2c(=O)c3cccnc3n(CC(=O)Nc3cccc(C(F)(F)F)c3)c2=O)cc1,6.41%
2,COC(=O)C1=C(C)Nc2nc(SCc3ccccc3)[nH]c(=O)c2C1c1cccs1 (stereo not shown),9.12%
3,Cn1ccnc1SCC(=O)Nc1ccc(F)c([N+](=O)[O-])c1,8.93%
4,O=C(CNS(=O)(=O)c1ccc(C(=O)N2CCCCC2)cc1)N1CCCCC1,11.1%
5,CCN(CC)c1ccc(N2C(=O)/C(=C/c3cccnc3)SC2=S)cc1,12.4%
6,NC(=O)c1ccccc1Br,3.7%
7,CCCOc1ccc2[nH]c(C(=O)N/N=C/c3cc(OC)c(OC)c(OC)c3)cc2c1,15.8%
8,Cc1cccc(N/N=C(\C=N\N)C(=O)c2ccc(Br)cc2)c1,17.4%
9,CCN(Cc1ccccc1)S(=O)(=O)c1cc(C(=O)O)ccc1OC,15.7%
10,S=C(NCc1ccccc1)Nc1cccc2ccccc12,7.97%
11,COc1ccccc1-n1nc(C(=O)NCc2ccco2)c2ccccc2c1=O,8.64%
12,O=C(c1cnn(-c2ccc(Cl)cc2)c1)c1ccccc1O,-41.9%
13,Cc1cc[n+](CC(=O)Nc2cc(C(F)(F)F)ccc2Cl)cc1.[Cl-],5.29%
14,CCC(C)C(=O)Nc1nc2ccc(OC)cc2s1 (stereo not shown),9.62%
15,O=C(OCC(=O)N1CCCC1=O)C1CCN(S(=O)(=O)c2c(Cl)cccc2Cl)CC1,4.94%
16,CCc1c(C(=O)N/N=C/c2cccs2)nnn1-c1nonc1N,11.4%
17,CCOC(=O)Cc1csc(NC(=O)c2ccc(C)o2)n1,14.9%
18,CCN1CCN(S(=O)(=O)c2ccc(Cl)c(C(=O)NC3CCC(C)CC3)c2)CC1 (stereo not shown),14.2%
19,Cc1cc(C(=O)Cn2cncn2)c(C)n1CCc1ccc(F)cc1,3.78%
20,O=C(OCC(=O)N1CCCC1)c1ccc(O)cc1,10.2%
21,O=C(Nc1cccc(C(=O)N2CCOCC2)c1)c1cccnc1,16.1%
22,CNS(=O)(=O)c1ccc(NCC2COc3ccccc3O2)c([N+](=O)[O-])c1 (stereo not shown),0.124%
23,CCC(CC)C(=O)c1c[nH]c(C(=O)NCCOC)c1,17.8%

row,Structure (SMILES),"hERG current change (%, negative = inhibition) at 1uM"
1,O=[N+]([O-])c1cc(-c2nc3nc4ccccc4nc3n2CCc2ccccc2)cc([N+](=O)[O-])c1,9.16%
2,COC(=O)C1=C(c2cc3ccccc3s2)C[C@@H]2CC[C@H]1N2C(=O)NCCCOC(C)C,2.84%
3,O=Cc1c(NCc2ccco2)nc2ccccn2c1=O,7.85%
4,CC/C(=N/Nc1cccc(Cl)c1)c1cnnc(SC)n1,16.1%
5,Cc1nn(Cc2ccccc2Cl)c2sc(C(=O)Nc3ccccc3N3CCOCC3)cc12,9.02%
6,Cc1ccc2c(CN3CCCc4ccccc43)cc(=O)oc2c1C,16%
7,CSc1ccccc1NC(=O)C1C2CCC(C2)C1C(=O)O (stereo not shown),13.3%
8,CCc1ccc(NC(=O)CCc2nc3ccccc3[nH]2)cc1,2.63%
9,COc1cc(CN2CCN(c3ccccc3C)CC2)cc([N+](=O)[O-])c1O,7.17%
10,Cc1cc(C)cc(NCc2cc(=O)oc3cc(C)c(O)cc23)c1,10.3%
11,O=S(=O)(Nc1nc2ccccc2nc1N1CCN(CCO)CC1)c1cc(F)ccc1F,5.69%
12,CCN=C1Sc2nc3ccc(OCC)cc3cc2CN1CCOC.Cl,4.24%
13,COc1ccc(N2CCN(S(C)(=O)=O)CC2)cc1,14.2%
14,Cl.O=C(CN1CCCC1)NCC12CC3CC(CC(C3)C1)C2,10.1%
15,Cc1cc(=O)n(-c2ccc(C(=O)O)cc2)[nH]1,17.4%
16,COc1cccc(C(=O)NCCS(=O)(=O)NCc2ccco2)c1,6.15%
17,COC(=O)c1c(S(=O)(=O)NCc2ccccc2)sc(C(=O)O)c1C,10.6%
18,N#Cc1cccc(NC(=O)COC(=O)c2ccc3c(=O)n4c(nc3c2)CCC4)c1,5.47%
19,CC(=O)N1[C@H](Cc2ccccc2)C=C[C@]1(C)C(=O)NCCN1CCOCC1,13.1%
20,COc1ccc(C2CC2C(C)=O)cc1 (stereo not shown),13.4%
21,COc1ccc(C(=O)Oc2ccc(F)cc2C(=O)/C=C/c2ccc(OC)c(OC)c2)cc1,0.79%
22,COc1cccc(OC)c1C(=O)NCC12CC3CC(C1)CC(CNC(=O)c1c(OC)cccc1OC)(C3)C2,11.7%
